The target of assay [1] is T1, Nlrp1b1_(720–1233)-V988D (mouse) (UniProt Q2LKW6).
T1 sequence: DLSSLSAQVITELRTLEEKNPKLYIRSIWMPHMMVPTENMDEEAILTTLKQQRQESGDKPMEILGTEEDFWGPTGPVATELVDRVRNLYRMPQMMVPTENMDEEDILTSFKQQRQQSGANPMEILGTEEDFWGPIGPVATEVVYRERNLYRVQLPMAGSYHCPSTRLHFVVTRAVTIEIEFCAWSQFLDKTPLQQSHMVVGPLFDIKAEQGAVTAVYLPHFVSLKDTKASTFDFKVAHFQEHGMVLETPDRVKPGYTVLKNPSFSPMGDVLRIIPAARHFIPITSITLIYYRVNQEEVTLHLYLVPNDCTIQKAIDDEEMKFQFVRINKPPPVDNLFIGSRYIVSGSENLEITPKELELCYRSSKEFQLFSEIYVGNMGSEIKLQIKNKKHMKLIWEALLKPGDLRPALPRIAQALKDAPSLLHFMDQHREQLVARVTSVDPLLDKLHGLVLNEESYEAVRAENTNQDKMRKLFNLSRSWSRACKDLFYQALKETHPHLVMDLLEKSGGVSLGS
Briefly: co-IP; T7- and HA-tagged Nlrp1b1_(720–1233) WT or V988D co-expressed with or without pro-caspase-1-C284A-FLAG (and pro-IL-1β-HA) in HT1080 cells; EBC lysates; anti-T7 antibody; blot anti-HA, anti-caspase-1 p10, anti-T7.

In assay [2] the target is T2, Nlrp1b1_(720–1233) (mouse) (UniProt Q2LKW6).
T2 sequence: T1 sequence with D269V
The description is as above.

For assay [3], the target named is Nlrp1b1_(1102–1233) (mouse) (UniProt Q2LKW6). As to the kind of experiment: co-IP; HA- and T7-tagged copies co-expressed in HT1080 cells; lysed in EBC buffer (50 mM Tris pH 8, 150 mM NaCl, 0.5% NP-40) by sonication; anti-HA antibody overnight, protein A Sepharose 2 h at 4°C; blot anti-T7.
Assay [4] deals with Nlrp1b1_(1142–1233) (mouse) (UniProt Q2LKW6). The assay is described as above.
In assay [5] the target is T3, pro-caspase-1-C284A-T7 (UniProt P29452).
T3 sequence: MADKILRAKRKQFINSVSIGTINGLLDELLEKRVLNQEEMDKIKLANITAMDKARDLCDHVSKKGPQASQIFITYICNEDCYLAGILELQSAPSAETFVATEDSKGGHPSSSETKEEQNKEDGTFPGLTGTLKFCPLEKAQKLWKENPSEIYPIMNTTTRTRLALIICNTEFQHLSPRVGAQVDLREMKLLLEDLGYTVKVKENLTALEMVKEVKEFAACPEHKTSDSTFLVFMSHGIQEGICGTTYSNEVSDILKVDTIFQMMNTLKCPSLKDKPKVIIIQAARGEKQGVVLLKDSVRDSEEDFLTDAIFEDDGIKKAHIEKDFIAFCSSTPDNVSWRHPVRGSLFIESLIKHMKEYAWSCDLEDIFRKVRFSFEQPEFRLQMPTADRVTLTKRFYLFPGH
As to the kind of experiment: co-IP; HA-tagged Nlrp1b1 fragments co-expressed with pro-caspase-1-C284A-T7 in HT1080 cells; EBC lysates; anti-T7 (control anti-GFP) antibody overnight, protein A Sepharose 2 h; blot anti-HA and anti-caspase-1 p10.

The target in assay [6] is Nlrp1b1_(1086–1233) (mouse) (UniProt Q2LKW6). Briefly: co-IP; HA- and T7-tagged copies co-expressed in HT1080 cells; lysed in EBC buffer (50 mM Tris pH 8, 150 mM NaCl, 0.5% NP-40) by sonication; anti-HA antibody overnight, protein A Sepharose 2 h at 4°C; blot anti-T7.
For assay [7], the target named is Nlrp1b1_(1100–1233) (mouse) (UniProt Q2LKW6). The description is as above.
In assay [8] the target is T4, N-terminal cleavage product of Nlrp1b1 (TAP-tagged) (mouse) (UniProt Q2LKW6).
T4 sequence: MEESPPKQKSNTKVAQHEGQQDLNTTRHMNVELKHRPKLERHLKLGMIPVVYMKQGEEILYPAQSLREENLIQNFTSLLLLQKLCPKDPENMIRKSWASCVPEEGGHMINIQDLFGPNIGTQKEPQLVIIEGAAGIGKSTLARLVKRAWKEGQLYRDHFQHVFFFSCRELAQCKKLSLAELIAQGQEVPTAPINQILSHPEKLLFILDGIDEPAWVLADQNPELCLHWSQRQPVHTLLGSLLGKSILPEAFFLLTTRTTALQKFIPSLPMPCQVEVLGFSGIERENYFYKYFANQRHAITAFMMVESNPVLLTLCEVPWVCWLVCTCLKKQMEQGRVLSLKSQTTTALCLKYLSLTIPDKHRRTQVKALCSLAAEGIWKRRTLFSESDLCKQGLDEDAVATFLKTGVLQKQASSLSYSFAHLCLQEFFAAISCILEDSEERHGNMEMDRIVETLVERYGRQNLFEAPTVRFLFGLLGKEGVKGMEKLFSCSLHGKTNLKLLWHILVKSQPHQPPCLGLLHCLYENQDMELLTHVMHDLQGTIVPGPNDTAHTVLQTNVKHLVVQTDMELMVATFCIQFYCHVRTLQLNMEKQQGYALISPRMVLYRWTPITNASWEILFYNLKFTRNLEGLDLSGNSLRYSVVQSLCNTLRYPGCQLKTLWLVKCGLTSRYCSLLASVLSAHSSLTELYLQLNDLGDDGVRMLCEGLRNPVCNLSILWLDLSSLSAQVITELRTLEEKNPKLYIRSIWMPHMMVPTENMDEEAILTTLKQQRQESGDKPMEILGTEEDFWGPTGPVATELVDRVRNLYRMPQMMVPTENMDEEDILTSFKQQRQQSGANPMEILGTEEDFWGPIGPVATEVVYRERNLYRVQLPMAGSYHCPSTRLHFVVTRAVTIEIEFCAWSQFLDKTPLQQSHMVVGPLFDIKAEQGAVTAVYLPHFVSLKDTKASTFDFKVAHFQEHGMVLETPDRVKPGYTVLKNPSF
As to the kind of experiment: co-IP.

Changes are numbered by the printed parent chain. Names may count otherwise. Results are given in words; binding and its absence hold for the method and conditions named. In cells and extracts the contact can be indirect. Some results given as binding are weak or reduced against the parent protein; the word gives no strength. For part of these data: Tags and fused reporters may be left off the sequences shown.

B1: pro-caspase-1-C284A-FLAG (enzyme, UniProt P29452 1-402)
chain: T3 sequence
B1: the binding result in assay [1] and in assay [2] was “binds” in each case.

B2: Nlrp1b1_(1102–1233) (domain or fragment, UniProt Q2LKW6 1102-1233)
chain: KLQIKNKKHMKLIWEALLKPGDLRPALPRIAQALKDAPSLLHFMDQHREQLVARVTSVDPLLDKLHGLVLNEESYEAVRAENTNQDKMRKLFNLSRSWSRACKDLFYQALKETHPHLVMDLLEKSGGVSLGS
On to B2, for which the binding entry in assay [3] was “no binding”.

B3: Nlrp1b1_(1142–1233) (domain or fragment, UniProt Q2LKW6 1142-1233)
chain: LHFMDQHREQLVARVTSVDPLLDKLHGLVLNEESYEAVRAENTNQDKMRKLFNLSRSWSRACKDLFYQALKETHPHLVMDLLEKSGGVSLGS
Turning to B3, the binding result in assay [4] and in assay [5] was “no binding” each time.

B4: Nlrp1b1_(1086–1233) (domain or fragment, UniProt Q2LKW6 1086-1233)
chain: FQLFSEIYVGNMGSEIKLQIKNKKHMKLIWEALLKPGDLRPALPRIAQALKDAPSLLHFMDQHREQLVARVTSVDPLLDKLHGLVLNEESYEAVRAENTNQDKMRKLFNLSRSWSRACKDLFYQALKETHPHLVMDLLEKSGGVSLGS
Consider B4, for which, in assay [6], the binding result is on record as “binds”.

B5: Nlrp1b1_(1100–1233) (domain or fragment, UniProt Q2LKW6 1100-1233)
chain: EIKLQIKNKKHMKLIWEALLKPGDLRPALPRIAQALKDAPSLLHFMDQHREQLVARVTSVDPLLDKLHGLVLNEESYEAVRAENTNQDKMRKLFNLSRSWSRACKDLFYQALKETHPHLVMDLLEKSGGVSLGS
B5: the binding entry in assay [7] and in assay [5] was “binds” throughout.

B6: Nlrp1b1_(1100–1233)-7A (domain or fragment, UniProt Q2LKW6 1100-1233)
chain: B5 chain with E1A, I2A, K3A, L4A, Q5A, I6A, K7A
With B6, in assay [5], the binding result is reported as “binds”.

B7: Nlrp1b1_(720–1233) (domain or fragment, UniProt Q2LKW6 720-1233)
chain: T1 sequence with D269V
With B7, in assay [2], the binding entry is “binds”.

B8: Nlrp1b1_(720–1233)-V988D (domain or fragment, UniProt Q2LKW6 720-1233)
chain: T1 sequence
For the molecule B8, the binding entry in assay [1] is “binds”.

B9: C-terminal cleavage product of Nlrp1b1 (HA-tagged) (domain or fragment, UniProt Q2LKW6 984-1233)
chain: SPMGVVLRIIPAARHFIPITSITLIYYRVNQEEVTLHLYLVPNDCTIQKAIDDEEMKFQFVRINKPPPVDNLFIGSRYIVSGSENLEITPKELELCYRSSKEFQLFSEIYVGNMGSEIKLQIKNKKHMKLIWEALLKPGDLRPALPRIAQALKDAPSLLHFMDQHREQLVARVTSVDPLLDKLHGLVLNEESYEAVRAENTNQDKMRKLFNLSRSWSRACKDLFYQALKETHPHLVMDLLEKSGGVSLGS
B9: the binding result in assay [8] is reported as “binds”.

Source of the values: article PMC3334886.
